Laboratory results: the supplement of paper PMC3334620
In all, about 33,000 sequences were measured (“E-score (-0.5 to 0.5)”: median about -0.012, highest 2% from about 0.27 on). This is one part of the list.

Molecular target: T1, Vhr1 (UniProt P40522)
T1 sequence: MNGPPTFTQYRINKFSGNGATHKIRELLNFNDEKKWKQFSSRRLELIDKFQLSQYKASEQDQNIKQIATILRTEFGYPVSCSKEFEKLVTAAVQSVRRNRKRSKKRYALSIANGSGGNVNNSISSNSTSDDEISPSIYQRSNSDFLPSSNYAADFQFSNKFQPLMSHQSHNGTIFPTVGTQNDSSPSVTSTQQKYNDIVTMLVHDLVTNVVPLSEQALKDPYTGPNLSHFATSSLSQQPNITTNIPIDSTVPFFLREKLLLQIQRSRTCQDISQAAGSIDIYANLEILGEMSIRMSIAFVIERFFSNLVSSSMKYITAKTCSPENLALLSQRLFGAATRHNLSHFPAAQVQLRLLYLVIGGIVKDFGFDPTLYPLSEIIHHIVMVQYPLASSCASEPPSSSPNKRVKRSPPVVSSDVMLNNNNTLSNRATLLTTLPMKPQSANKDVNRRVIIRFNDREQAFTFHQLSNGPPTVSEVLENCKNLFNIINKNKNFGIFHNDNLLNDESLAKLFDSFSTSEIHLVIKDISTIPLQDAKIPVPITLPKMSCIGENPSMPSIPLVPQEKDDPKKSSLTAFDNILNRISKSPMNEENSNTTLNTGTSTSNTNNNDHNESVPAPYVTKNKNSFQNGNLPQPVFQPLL
Test: PBM E-score (8-mer binding enrichment) (E-score (-0.5 to 0.5)); higher = stronger / more preferred TF binding; most listed sequences are background and not binding sites
Conditions: protein concentration: 200 nM; construct: GST-full length
In short: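 Yeast transcription factors carrying a GST tag, as full-length proteins or DNA-binding domains, were produced by PURExpress in vitro transcription/translation. About 100-200 nM protein was applied to universal all-10-mer Agilent arrays, double-stranded by primer extension on fresh or once-stripped slides. Bound protein was detected with fluorescent anti-GST, and scans were normalised with masliner. The Universal PBM Analysis Suite gave each ungapped eight-base word, pooled with its reverse complement, an E-score, a modified Wilcoxon-Mann-Whitney statistic.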

First: ATTTCACC
Second: CAACGTTC
The “PBM E-score” value of the first is lower: -0.107 for the first, -0.0711 for the second.

First: AGGCGACG
Second: GGGGACCC
The “PBM E-score” value of the first is lower: -0.145 for the first, 0.00776 for the second.

First: AATCTCCT
Second: CCCGTGAC
The “PBM E-score” value of the first is lower: -0.169 for the first, 0.211 for the second.

Going from GTCGGATA to ACTATATC, the “PBM E-score” value rises from 0.0181 to 0.198.

Going from CATAGCTA to ATGGAGAG, the “PBM E-score” value falls from 0.0366 to -0.167.

Compared with CGAGGCCA, ACAAGGGC is lower in “PBM E-score” value: 0.046 for the first, -0.252 for the second.

Going from AGTGTAAG to CCCTAAGG, the “PBM E-score” value falls from 0.0767 to -0.274.

First: AGCGGAGA
Second: TCAGTCAA
The “PBM E-score” value of the first is lower: 0.096 for the first, 0.114 for the second.

Compared with GATTGCGC, CAGGGCGC is higher in “PBM E-score” value: 0.0275 for the first, 0.164 for the second.

Going from CGCGGAAC to GGCGACAA, the “PBM E-score” value falls from 0.0336 to -0.0363.

Going from ACAGCCAA to TCTCCAGA, the “PBM E-score” value rises from -0.0902 to -0.0712.

Going from AAGAGTGA to AGAACACT, the “PBM E-score” value rises from 0.0848 to 0.108.

Compared with GCGTCATA, CTACCAAA is lower in “PBM E-score” value: 0.0398 for the first, 0.0392 for the second.

First: ACCTGTGC
Second: GGTTGCTA
The “PBM E-score” value of the first is lower: -0.13 for the first, 0.0991 for the second.

Compared with CGAGTGAG, GTCTTCGA is lower in “PBM E-score” value: 0.131 for the first, 0.00696 for the second.

First: GACTGGGA
Second: ATAGCGAG
The “PBM E-score” value of the first is higher: 0.12 for the first, -0.119 for the second.

Going from GACAGGGC to CTCCCAAC, the “PBM E-score” value rises from -0.0735 to -0.00407.

First: ACTCAGCA
Second: CTCGTCGC
The “PBM E-score” value of the first is higher: 0.0929 for the first, 0.0225 for the second.

First: AGGTCAAA
Second: CCGGAAAC
The “PBM E-score” value of the first is higher: -0.0515 for the first, -0.071 for the second.

Going from GGTCAGAA to GGAATTAA, the “PBM E-score” value rises from -0.0961 to -0.0606.

Going from CATACAAG to CCATGAGC, the “PBM E-score” value rises from -0.0453 to 0.0512.

Compared with CTCCGAAC, ATGTGTTG is higher in “PBM E-score” value: -0.0455 for the first, 0.229 for the second.

Compared with ACTCTCAG, ACCCTGCT is higher in “PBM E-score” value: -0.0997 for the first, -0.0137 for the second.

Compared with CGTCGACA, GACAAGCC is lower in “PBM E-score” value: 0.0371 for the first, 0.0205 for the second.

First: GAGTCGAC
Second: AGAAAGTC
The “PBM E-score” value of the first is higher: 0.294 for the first, -0.137 for the second.

Going from ATAAATCG to ACATAGTC, the “PBM E-score” value rises from -0.0946 to 0.272.

Going from AGGCTTGG to AACCCGCA, the “PBM E-score” value rises from -0.0677 to 0.123.

First: ATGAACAC
Second: GCAAAGAA
The “PBM E-score” value of the first is lower: -0.032 for the first, -0.0293 for the second.

First: AAAAATTT
Second: ACGAAAAT
The “PBM E-score” value of the first is lower: -0.263 for the first, 0.0139 for the second.

First: CACAGCCC
Second: GTGAAGGA
The “PBM E-score” value of the first is lower: -0.0755 for the first, -0.0414 for the second.

First: CAAACCGA
Second: ACGTATGG
The “PBM E-score” value of the first is higher: 0.0579 for the first, -0.0776 for the second.

Compared with ACTTCAAG, ACTGTCTA is higher in “PBM E-score” value: 0.0592 for the first, 0.13 for the second.

Going from GCTTCGCA to AACAGGGG, the “PBM E-score” value rises from -0.219 to -0.0515.

Compared with AGGGCAAG, ATACGATG is higher in “PBM E-score” value: -0.0017 for the first, 0.0694 for the second.

Compared with GAGCGAGC, AGCCCGAT is lower in “PBM E-score” value: 0.103 for the first, 0.0332 for the second.

First: TGTCCCAA
Second: ATCGTGGG
The “PBM E-score” value of the first is lower: -0.025 for the first, 0.226 for the second.

First: ATAGTCTG
Second: CGTATCTC
The “PBM E-score” value of the first is lower: -0.0734 for the first, 0.0109 for the second.

Compared with GACTCCTC, AGAGGCCA is lower in “PBM E-score” value: 0.4 for the first, -0.0855 for the second.

First: AGTGCGAG
Second: TCGTCTAA
The “PBM E-score” value of the first is higher: 0.114 for the first, -0.151 for the second.

Going from CCGGGATC to ACCAGAGG, the “PBM E-score” value falls from 0.261 to -0.14.

Going from ACAATAGG to AATAAAGA, the “PBM E-score” value rises from -0.00659 to 0.128.

Going from AATGCATA to AGCGGTAA, the “PBM E-score” value falls from 0.0748 to 0.0443.

First: ATAGGCAC
Second: AGTTAGCA
The “PBM E-score” value of the first is higher: -0.118 for the first, -0.123 for the second.
